Results from the supplement of paper PMC11417369.
Some of the results follow.

Test system: PfAP2-HC AP2 domain (GST-tagged)
Test: gcPBM binding intensity (ln(normalized median fluorescence intensity)); higher = stronger DNA binding
In short: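 GST-fused DNA-binding domains of P. falciparum, expressed in E. coli, were applied at about 25 μg on average for 1 h to an Agilent 4 × 180k array of primer-extended double-stranded 36-bp intergenic genomic probes and negative controls. Binding intensity is the highest Masliner-normalised natural-log median intensity across replicate spots of either probe orientation, measured with Alexa488 anti-GST antibody and a 488 nm scan.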

Sequence	gcPBM binding intensity (ln)
AACAACAACTAATATGCACACATTTAAAAACAAAAT [CACACA_site2440]	9.94
TATTTTTTTTTTTTTTTACACACTATAGGGAAAAAA [CACACA_site8583]	9.41
ATTAAAATTTAAAATACACACACATATATATAATAT [CACACA_site8612]	10.4
CATACATACATACATACACACACATATATATATATA [CACACA_site8593]	9.96
AAACCTTTACATCGTTTGCACTATATTGATATGTGT [GTGCAC_site9686]	9.85
TTTTTTAACAAAAATAAAACATAACTGAATTAAAAG [GTGCAC_negctrl_site244]	9.48
CTTCCTATATTTTACTGTACTTTTTTTTTTTTTTTT [XGTACX_site4016]	9.75
ACGAATTAAATTTGCTGTACCAAAAAGAAAACAATA [XGTACX_site5511]	9.62
GCTTCTTAATATCATACACACATAGATATATTTATA [CACACA_site5676]	9.86
GGAGACTTTGTATTGGGTACGTATTTCAATGCATGT [XGTACX_site1596]	9.46
AACAAATGTTAAATGTTTAAGGAGAAAATAAAGACA [CACACA_negctrl_site1163]	9.73
GAAAACATAAAAATATGTACTTAAAATATATTTTGT [XGTACX_site868]	9.72
AAAACGAAACATCTGTGTATAAGTCTATATTATTAT [XGTACX_negctrl_site301]	9.7
TTTATGTGTATTAAGTGTACACATATAGTGTATTTT [XGTACX_site999]	9.83
ATATATAAGGAAAAAAGTACTTATATTTTTTTTTTG [XGTACX_site1909]	9.52
AAATAAAGCATGTGCTGTACAAACGAAATATTTAAG [XGTACX_site3146]	10.2
TGTCATGATACATACACACACATACCCATACCCATA [CACACA_site5211]	10.6
AAATATATTATATGTACACACAAAATTAAGGGATAT [CACACA_site1375]	10.1
ATATTTTTTAATTTTACACACCATATAAAATAATTC [CACACA_site7339]	9.67
ATCAATACTTTTTTGGGTACATAAATATATATATAT [XGTACX_site8436]	9.63
AACTAATTCATGTTATATTAGATAAAAAAAAAAAAA [TGCATGCA_negctrl_site340]	9.31
AAAATAATAAATAAATGTACATATATATATATATAT [XGTACX_site3078]	10.2

Sequence	gcPBM binding intensity (ln)
TTTTTTTTGTTCATTGTGCACATTGCTTGCATGGAA [GTGCAC_site9693]	9.61
ATAAGATTATACAATTGTACGTTGTTCAAGATAAGG [XGTACX_site191]	9.74
GTGTTTGAAAATAAAGCATGCAAATATATTTGAAAT [TGCATGCA_site386]	9.77
TGGTTTCAATAATTAATAAAATATATTATTGTGAAA [CACACA_negctrl_site442]	9.26
TCTAACATATAATATTCACACACATATATATATTAT [CACACA_site8236]	10.1
ATAATATATTTATAATGTACAAACCATTTGTATTAA [XGTACX_site4370]	9.47
ATTATTATTATATTTTGTACATATGTAACAATATAT [XGTACX_site5780]	9.81
CATTAAAATTGAGAGATGCACTTTTTAAGACCTTGT	9.43
AAAAAAAATTAAATAAATAAATATACACATATATAT [GTGCAC_negctrl_site394]	9.65
AAAACATTGTTTATGTGTACATAATTATATTTACAA [XGTACX_site6926]	9.68
TAAATATGTGTATGTAGTACATAGTGTTTTTTTTTT [XGTACX_site3748]	9.72
TGCATATTACTTTTTCACATAAAAATGATCCGATTA [GTGCAC_negctrl_site526]	9.4
ATATTATGAATTGTCACACATATATTTAAAAATGTA [CACACA_site4852]	9.5
AAAATATAAAAATGAAGTACAAAAAAAAAAAAAAAA [XGTACX_site8132]	9.47
GTTATACACATCAACACACACATACAACGTGGTGTA [CACACA_site6677]	10
AAAAAATGACTTAATATGAGCATATATTATGTTGTT [CACACA_negctrl_site1609]	9.65
TTTTAACAAAAAAAAAGAAAAGAAAAGAAAATAATA [XGTACX_negctrl_site530]	9.39
TTAACTCTGGAGAAAAGTACATAGTATCTGGTAACA [XGTACX_site4941]	9.49
CAAAAAACAACAGATCGTACAAAATATTATATATAT [XGTACX_site2285]	9.91
TATCCATATTTGTTCACACACACACCGATTTATATA [CACACA_site5888]	10.2
TTGAAAAATGAGCACACACACAAATACATACATATT [CACACA_site3231]	10.4
ATTATAAAAATATATTGTACACAAAAATGTTTATAT [XGTACX_site5066]	9.63

Sequence	gcPBM binding intensity (ln)
TGAGATATAAAAATATGTACTTATGTATAAATATTT [XGTACX_site7746]	9.61
CCAAATTTATTTTGTAGTACTCCGTATAGATCAACA [XGTACX_site7945]	9.47
AAGTTTTTTTTTAACACACACATAATAAAATAAATA [CACACA_site446]	10.1
TATATTTATATCCACTTCGTTTAACGCACAGATATA [CACACA_negctrl_site954]	9.72
AAATTATATATATTACGTACATAGAACTTTACAGAA [XGTACX_site6646]	9.66
ATGTTACACCGACACACACACATAAAAAAACAAAAA [CACACA_site5750]	10.2
TCTTATTCAAACGTAAAACGAAGAAGAAAAAAAAAA [CACACA_negctrl_site149]	9.44
ATATACTATATTTTAACACACAAAAAAAAAAAATAT [CACACA_site1091]	9.79
AAGAAATAAAAAGAATGTACACAATATGTATTATAA [XGTACX_site4733]	9.79
TGGACAATTGTTTATTGTACTTAAATTTTATGTTCT [XGTACX_site8974]	9.58
ATAAATAAATAAATAAATAAATATACATATACATAT [CACACA_negctrl_site205]	9.71
AAATTTATATATAGTTGTACAAAAATATGTTTCGTA [XGTACX_site4801]	9.81
TTATTTTATCACACATGTACATATGTTAATTTTTTT [XGTACX_site5598]	9.8
TGAATAATCAATAGTACACACATATAAATATATATA [CACACA_site2813]	9.91
AAAATAAAAAGAAATAAATTAACAGTAAGGAAAAAA [CACACA_negctrl_site1105]	9.71
CCTTTTTCTAATGGATGTACTTATTATATACATTAT [XGTACX_site281]	9.75
AAGAAAAGTAAATATGCATGTAGGGTAGGTTATTTT [TGCATGCA_site46]	9.87
TATATATATCTGTATACACACATATGTATGTTATGT [CACACA_site6090]	10.3
ATATTTTTTCTGAACGGTACAGAATTTTTCAAGATT [XGTACX_site484]	9.58
TAATTTATTAATAATTGTACAGATATTATACTTAAA [XGTACX_site8947]	9.32
TAATTCATCCTATGCACACACAATACCAAAATGTGC [CACACA_site4269]	9.96
TTTTGAATTAAACAAGCATGCTTTATTTACTTCTTA [TGCATGCA_site289]	9.7

Sequence	gcPBM binding intensity (ln)
TGCTCATGAGGTCAGAGTACAAAATAGTAAATGTAT [XGTACX_site2973]	9.56
TTTATTTTTATTTTTGTGCACGGGATTAAATAAAAG [GTGCAC_site9842]	9.31
TTTTTTTTTTTTTTTCTTTTTTATTCTCACAAAAAA [CACACA_negctrl_site1790]	8.76
AACATTTATATTTAAGTGCAGATGCTGTAATTTAGA	9.47
TTTTTATAACAAAGTATTTAAATAATTTATACTAAT [TGCATGCA_negctrl_site104]	9.35
GAACAAATTACAAGTTGTACTTTATGTAAATTATTA [XGTACX_site5304]	9.55
ATGCGTTCATACATACATACATACATACAATTTGTA [TGCATGCA_negctrl_site50]	9.79
GATTATCTTCAAGTATGTACACACTATATATAATAA [XGTACX_site5108]	9.68
AATAAATAGAGGAAATGTACATATAAAAATAATTTC [XGTACX_site2454]	10
TTAACATCTTCGTTGACACACAAAAAAAAAAATAAT [CACACA_site1819]	9.65
TACACAAACAGACACACACACACACGCGCACAAAAA [CACACA_site7192]	11
ATTACATGTATACATGTCAACACGTATAAAAAAAAA [CACACA_negctrl_site1154]	9.7
ATTATAAATATATTTTGTACTTAAAAGGAAAAAAAA [XGTACX_site55]	9.47
AATAAGCATAGACACACACACAAAAAAAAAAAAAAA [CACACA_site6476]	10.1
ATATAACAGAAACACACACACATATATATATATTAT [CACACA_site4140]	11.3
TATTTTTATATATAATCACACATTGGAATGTTCTAA [CACACA_site5540]	9.6
ATAAATGATAGTAAAAGTACACAAAATGTTTTAAAA [XGTACX_site1623]	9.77
GCACGAAACAATGTATATATATATATATATATATAT [GTGCAC_negctrl_site412]	9.9
TTCTTTATGGAAGTGTAAAAAAAGAAATACTTTTTT [CACACA_negctrl_site915]	9.32
TTTTTTTTTTTGGTTACACACATTTGTATATTCTCA [CACACA_site134]	9.89
CATATTAATACAGAATGTACGGATAACAAACTGTTT [XGTACX_site7935]	9.63
ATAATTATATGATGAGTGCACAATAAAAATATCGTT [GTGCAC_site9920]	9.81
